Molecules are shown by their SMILES. In all, about 150,000 compounds went through this assay and about 540 (0.36%) showed an effect of 50% or more. The list shows a part of the results.

The assay has as its system Plasmodium falciparum. Description: Primary screen in NF54 nanoGlo assay, in single point, at 2uM, 72h; a lower Z score goes with more inhibition. Type of assay: functional, Erythrocyte. Particulars: timepoint 72 hour.
Turning to `CCn1cc(COc2ccc(N)cc2)c(C)n1`, the “% Inhibition” value is recorded as 28% and the Z score was -3.17.
As for `Cc1cccc(NC(=O)c2ccc(=O)n(CCC(=O)Nc3ccc4c(c3)OCO4)n2)c1`, the “% Inhibition” value is recorded as -7% and the Z score amounted to 1.18.
With `Cc1cc(CNC(=O)N2CCC[C@H](C)C2)on1`, the “% Inhibition” value turned out to be 2% and the Z score was -0.28.
For `COc1ccc(OCC(=O)N2CCO[C@H](c3ccccc3)C2)cc1` the same measures were -22% and 3.48.
On to `Cc1ccc(C[C@H](CO)CNC(=O)c2ccc3c(c2)OCO3)cc1`, for which the “% Inhibition” value was -11% and the Z score is reported as 1.17.
On to `Cc1ccc(S(=O)(=O)N2CCC(c3csc(N)n3)CC2)cc1`, for which the “% Inhibition” value was 36% and the Z score is listed as -5.25.
As to `CCOCCCNCc1cccc(OC)c1`, the “% Inhibition” value was -7% and the Z score was 1.15.
In the case of `O=C(NCCN1CCCC1)c1cc2n(n1)CCN(Cc1ccccc1Cl)C2=O`, the “% Inhibition” value is -11% and the Z score came out at 1.35.
For the compound `Cc1ccc(NC(=O)c2ccc3c(c2)N(C)C(=O)c2ccccc2O3)c(C)c1`, the “% Inhibition” value is -1% and the Z score was 0.21.
Turning to `C[C@@H]1Oc2ccc(NC(=O)CCc3ccsc3)cc2NC1=O`, the “% Inhibition” value is recorded as -15% and the Z score was 2.06.
Take `CCCc1c(C(=O)NCc2ccco2)cnn1-c1nc(C)cc(=O)[nH]1`: the “% Inhibition” value was 11% and the Z score is listed as -1.39.
Consider `CCN1CCNC(=O)[C@@H]1CC(=O)NCc1cc2c(cc1OC)OCCO2`, for which the “% Inhibition” value is on record as -9% and the Z score came to 1.52.
Take `Cn1nc2c(cc1=O)C[C@@H](C(=O)NCc1ccccn1)CC2`: the “% Inhibition” value was -11% and the Z score is 2.1.
For `Cc1nscc1C(=O)NCC(F)(F)C(F)F` the same measures were 1% and -0.12.
For `O=S1(=O)CCC(c2ncnn2C2Cc3ccccc3C2)CC1`, the “% Inhibition” value is given as -5% and the Z score is recorded as 0.98.
As to `Fc1cc(F)cc(-c2noc3ncnc(N4CCN(Cc5ccccc5)CC4)c23)c1`, the “% Inhibition” value turned out to be 0% and the Z score is given as -0.01.
For the compound `CCN(C1CCCCC1)S(=O)(=O)c1ccc(C(=O)Nc2ccc3nc(C)sc3c2)cc1`, the “% Inhibition” value is -10% and the Z score is listed as 1.62.
`O=C1c2ccccc2N[C@H](c2ccc(Cl)cc2Cl)N1c1ccc2ccccc2c1`: the “% Inhibition” value was -22% and the Z score is 2.52.
Turning to `CS(=O)(=O)NCCN1CCOc2ccccc2[C@@H]1CO`, the “% Inhibition” value is -8% and the Z score is reported as 1.48.
For `O=C1C2CC=CCC2C(=O)N1Cc1noc(C2CC2)n1` (stereo unspecified) the same measures were -3% and 0.48.
On to `c1ccc(C[C@H](Nc2ncnc3c2CCC3)c2ccccn2)cc1`, for which the “% Inhibition” value is recorded as -3% and the Z score is 0.59.
As for `O=C(NCCc1c[nH]c2ccccc12)C1CC1c1ccco1` (stereo unspecified), the “% Inhibition” value is -9% and the Z score amounted to 0.88.
Turning to `N#Cc1cc(F)c(N2CCC(c3nncn3C3CC3)CC2)c(F)c1`, the “% Inhibition” value is 3% and the Z score is on record as -0.33.
Consider `CCOCCC(=O)N[C@H]1CN(c2nccc(NC)n2)C[C@@H]1C(C)C`, for which the “% Inhibition” value was 2% and the Z score was -0.3.
Turning to `CN1CCN(S(=O)(=O)c2ccccc2F)C[C@]12CCNC(=O)CC2`, the “% Inhibition” value was 0% and the Z score is recorded as 0.04.
On to `Cc1ccc(NC(=O)[C@H]2Nc3cc(F)ccc3S(=O)(=O)N2)cc1F`, for which the “% Inhibition” value is listed as -8% and the Z score was 1.41.
`COC(=O)CN1CCC[C@H](NCC(F)(F)F)C1`: the “% Inhibition” value was -6% and the Z score is 0.79.
On to `Cc1ccc(C(=O)Cn2c(=O)ncc3c2cnn3[C@H]2CCS(=O)(=O)C2)c(C)c1`, for which the “% Inhibition” value is given as -1% and the Z score is listed as 0.1.
In the case of `Cc1noc(C2CCN(C(=O)c3cc(C(C)C)[nH]n3)CC2)n1`, the “% Inhibition” value was -36% and the Z score amounted to 4.23.
Regarding `Cc1nc(-c2ccco2)ccc1C(=O)N(C)Cc1cnn(C)c1`, the “% Inhibition” value is listed as -3% and the Z score is listed as 0.44.
Regarding `Cc1cnccc1CC(=O)N[C@H](CO)CC1CCCC1`, the “% Inhibition” value is on record as -18% and the Z score is on record as 2.84.
Consider `Cc1noc(C)c1CN(C)C(=O)NC1CCCC1Oc1ccccc1` (stereo unspecified), for which the “% Inhibition” value is given as -13% and the Z score amounted to 1.78.
As to `CCOCc1c(C)c2ccc(C(C)(C)C)cc2[nH]c1=O`, the “% Inhibition” value is given as 26% and the Z score is given as -2.99.
For the compound `CN1CC[C@@H]2CN(C(=O)C3(c4ccccc4)CCCC3)C[C@]2(C(=O)O)C1`, the “% Inhibition” value worked out at 3% and the Z score was -0.58.
For the compound `Cc1ccc(-c2nc(C(=O)N3CCN(c4ccc(Cl)cc4)CC3)cs2)s1`, the “% Inhibition” value is on record as -12% and the Z score came to 1.38.
Take `O=C1C[C@H](N2CCN(/C=C/c3ccccc3)CC2)C(=O)N1c1cc(Cl)cc(Cl)c1`: the “% Inhibition” value is on record as -5% and the Z score came out at 0.66.
Regarding `CCC(C)(C)NS(=O)(=O)c1c(F)cc(F)cc1Br`, the “% Inhibition” value is -9% and the Z score stood at 0.76.
Consider `CC(C)(CNC(=O)N1CCC(C(N)=O)CC1)c1ccc2c(c1)OCO2`, for which the “% Inhibition” value is reported as -5% and the Z score is listed as 0.77.
For `CN(CC#CCNC(=O)[C@H]1CCCN(C)C1)Cc1ccccc1` the same measures were -5% and 0.88.
For `CS(=O)(=O)c1ccc(CN2CCC[C@H]2c2nc(-c3ccnc(N4CCC(C(N)=O)CC4)c3)no2)cc1`, the “% Inhibition” value is 17% and the Z score is -1.98.
For `C#CCN(CCc1ccc2c(c1)CCO2)[C@H]1CCS(=O)(=O)C1` the same measures were 0% and 0.01.
For the compound `CN(C)CCN1CCCN(C(=O)c2cnc3ccc(F)cc3c2)CC1`, the “% Inhibition” value was -5% and the Z score was 0.62.
Take `O=C(NC1CC1)c1ccc2[nH]c3c(c2c1)CCCC3`: the “% Inhibition” value turned out to be 12% and the Z score is reported as -1.35.

Values taken from ChEMBL document CHEMBL4888484, “Replenishing the malaria drug discovery pipeline: Screening and hit evaluation of the MMV Hit Generation Library 1 (HGL1) against asexual blood stage Plasmodium falciparum ,using a nano luciferase reporter read-out” (2022).
